# The list shows a part of the results.
# B1: DC-ASGPR Long (Homo sapiens) (protein)
# chain: MTRTYENFQYLENKVKVQGFKNGPLPLQSLLQRLRSGPCHLLLSLGLGLLLLVIICVVGFQNSKFQRDLVTLRTDFSNFTSNTVAEIQALTSQGSSLEETIASLKAEVEGFKQERQAGVSELQEHTTQKAHLGHCPHCPSVCVPVHSEMLLRVQQLVQDLKKLTCQVATLNNNASTEGTCCPVNWVEHQDSCYWFSHSGMSWAEAEKYCQLKNAHLVVINSREEQNFVQKYLGSAYTWMGLSDPEGAWKWVDGTDYATGFQNWKPGQPDDWQGHGLGGGEDCAHFHPDGGWNDDVCQRPYHWVCEAGLGQTSQESH
# Key:
# Assay in all cases: glycan array binding signal (z-score within array); higher = stronger binding
# Settings in all cases: glycan notation: IUPAC condensed, linker removed
# GlcNAc(b1-3)GalNAc = biological target: GlcNAc(b1-3)GalNAc
# Method in brief: (§1)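 Negative Z-scores can be read as non-binding. The Z-score is calculated within each array and then averaged across arrays of one protein sequence at different concentrations or buffers and across linkers. Arrays, 3228 in all, were curated from the Consortium for Functional Glycomics database and kept only where the protein sequence was available.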
# GlcNAc(b1-3)Man = biological target: GlcNAc(b1-3)Man
# Method in brief: as §1
# [1] = biological target: GlcNAc(b1-3)[GlcNAc(b1-4)][GlcNAc(b1-6)]GlcNAc
# Method in brief: as §1
# [2] = biological target: GlcNAc(b1-3)[GlcNAc(b1-6)]Gal(b1-4)GlcNAc
# Method in brief: as §1
# [3] = biological target: GlcNAc(b1-3)[GlcNAc(b1-6)]GalNAc
# Method in brief: as §1
# [4] = biological target: GlcNAc(b1-4)Gal(b1-4)GlcNAc
# Method in brief: as §1
# GlcNAc(b1-4)GlcNAc = biological target: GlcNAc(b1-4)GlcNAc
# Method in brief: as §1
# [5] = biological target: GlcNAc(b1-4)GlcNAc(b1-4)GlcNAc
# Method in brief: as §1
# [6] = biological target: GlcNAc(b1-4)GlcNAc(b1-4)GlcNAc(b1-4)GlcNAc(b1-4)GlcNAc
# Method in brief: as §1
# [7] = biological target: GlcNAc(b1-4)GlcNAc(b1-4)GlcNAc(b1-4)GlcNAc(b1-4)GlcNAc(b1-4)GlcNAc
# Method in brief: as §1
# [8] = biological target: GlcNAc(b1-4)[GlcNAc(b1-6)]GalNAc
# Method in brief: as §1
# [9] = biological target: GlcNAc(b1-6)Gal(b1-4)GlcNAc
# Method in brief: as §1
# GlcNAc(b1-6)GalNAc = biological target: GlcNAc(b1-6)GalNAc
# Method in brief: as §1
# [10] = biological target: GlcNAc6S(b1-3)Gal(b1-4)GlcNAc
# Method in brief: as §1
# Kdn(a2-3)Gal(b1-3)GalNAc = biological target: Kdn(a2-3)Gal(b1-3)GalNAc
# Method in brief: as §1
# Kdn(a2-3)Gal(b1-3)GlcNAc = biological target: Kdn(a2-3)Gal(b1-3)GlcNAc
# Method in brief: as §1
# Kdn(a2-3)Gal(b1-4)Glc = biological target: Kdn(a2-3)Gal(b1-4)Glc
# Method in brief: as §1
# Kdn(a2-3)Gal(b1-4)GlcNAc = biological target: Kdn(a2-3)Gal(b1-4)GlcNAc
# Method in brief: as §1
# [11] = biological target: Kdn(a2-3)Gal(b1-4)[Fuc(a1-3)]GlcNAc
# Method in brief: as §1
# Kdn(a2-6)Gal(b1-4)GlcNAc = biological target: Kdn(a2-6)Gal(b1-4)GlcNAc
# Method in brief: as §1
# [12] = biological target: Man(a1-2)Man(a1-2)Man(a1-3)Man
# Method in brief: as §1
# [13] = biological target: Man(a1-2)Man(a1-2)Man(a1-6)[Man(a1-3)]Man
# Method in brief: as §1
# Man(a1-2)Man(a1-3)Man = biological target: Man(a1-2)Man(a1-3)Man
# Method in brief: as §1
# [14] = biological target: Man(a1-2)Man(a1-3)[Man(a1-2)Man(a1-6)]Man
# Method in brief: as §1
# [15] = biological target: Man(a1-2)Man(a1-3)[Man(a1-2)Man(a1-6)]Man(a1-6)[Man(a1-2)Man(a1-2)Man(a1-3)]Man
# Method in brief: as §1
# [16] = biological target: Man(a1-2)Man(a1-3)[Man(a1-2)Man(a1-6)]Man(a1-6)[Man(a1-2)Man(a1-2)Man(a1-3)]Man(b1-4)GlcNAc(b1-4)GlcNAc
# Method in brief: as §1
# [17] = biological target: Man(a1-2)Man(a1-3)[Man(a1-6)]Man(a1-6)[Man(a1-2)Man(a1-3)]Man(b1-4)GlcNAc(b1-4)GlcNAc
# Method in brief: as §1
# [18] = biological target: Man(a1-2)Man(a1-6)[Man(a1-3)]Man(a1-6)[Man(a1-2)Man(a1-2)Man(a1-3)]Man
# Method in brief: as §1
# [19] = biological target: Man(a1-2)Man(a1-6)[Man(a1-3)]Man(a1-6)[Man(a1-2)Man(a1-2)Man(a1-3)]Man(b1-4)GlcNAc(b1-4)GlcNAc
# Method in brief: as §1
# Man(a1-3)[Man(a1-6)]Man = biological target: Man(a1-3)[Man(a1-6)]Man
# Method in brief: as §1
# [20] = biological target: Man(a1-3)[Man(a1-6)]Man(a1-6)[Man(a1-2)Man(a1-3)]Man(b1-4)GlcNAc(b1-4)GlcNAc
# Method in brief: as §1
# [21] = biological target: Man(a1-3)[Man(a1-6)]Man(a1-6)[Man(a1-3)]Man
# Method in brief: as §1
# [22] = biological target: Man(a1-3)[Man(a1-6)]Man(a1-6)[Man(a1-3)]Man(b1-4)GlcNAc(b1-4)GlcNAc
# Method in brief: as §1
# [23] = biological target: Man(a1-3)[Man(a1-6)]Man(b1-4)GlcNAc(b1-4)GlcNAc
# Method in brief: as §1
# [24] = biological target: Man(a1-3)[Man(a1-6)]Man(b1-4)GlcNAc(b1-4)[Fuc(a1-6)]GlcNAc
# Method in brief: as §1
# Man(a1-6)Man = biological target: Man(a1-6)Man
# Method in brief: as §1
# Man(b1-4)GlcNAc = biological target: Man(b1-4)GlcNAc
# Method in brief: as §1
# MurNAc(b1-4)GlcNAc = biological target: MurNAc(b1-4)GlcNAc
# Method in brief: as §1
binder,measurement,setting,value
B1,glycan array binding signal (z-score),GlcNAc(b1-3)GalNAc,-0.555
same,glycan array binding signal (z-score),GlcNAc(b1-3)Man,-0.414
same,glycan array binding signal (z-score),[1],-0.508
same,glycan array binding signal (z-score),[2],-0.555
same,glycan array binding signal (z-score),[3],-0.474
same,glycan array binding signal (z-score),[4],-0.763
same,glycan array binding signal (z-score),GlcNAc(b1-4)GlcNAc,-0.48
same,glycan array binding signal (z-score),[5],-0.382
same,glycan array binding signal (z-score),[6],-0.261
same,glycan array binding signal (z-score),[7],-0.618
same,glycan array binding signal (z-score),[8],0.053
same,glycan array binding signal (z-score),[9],-0.211
same,glycan array binding signal (z-score),GlcNAc(b1-6)GalNAc,3.43
same,glycan array binding signal (z-score),[10],-0.271
same,glycan array binding signal (z-score),Kdn(a2-3)Gal(b1-3)GalNAc,-0.216
same,glycan array binding signal (z-score),Kdn(a2-3)Gal(b1-3)GlcNAc,-0.092
same,glycan array binding signal (z-score),Kdn(a2-3)Gal(b1-4)Glc,-0.385
same,glycan array binding signal (z-score),Kdn(a2-3)Gal(b1-4)GlcNAc,-0.453
same,glycan array binding signal (z-score),[11],-0.446
same,glycan array binding signal (z-score),Kdn(a2-6)Gal(b1-4)GlcNAc,-0.25
same,glycan array binding signal (z-score),[12],-0.452
same,glycan array binding signal (z-score),[13],-0.543
same,glycan array binding signal (z-score),Man(a1-2)Man(a1-3)Man,-0.418
same,glycan array binding signal (z-score),[14],-0.157
same,glycan array binding signal (z-score),[15],-0.248
same,glycan array binding signal (z-score),[16],-0.746
same,glycan array binding signal (z-score),[17],-0.248
same,glycan array binding signal (z-score),[18],-0.394
same,glycan array binding signal (z-score),[19],-0.345
same,glycan array binding signal (z-score),Man(a1-3)[Man(a1-6)]Man,-0.382
same,glycan array binding signal (z-score),[20],-0.307
same,glycan array binding signal (z-score),[21],-0.464
same,glycan array binding signal (z-score),[22],-0.577
same,glycan array binding signal (z-score),[23],0.332
same,glycan array binding signal (z-score),[24],0.254
same,glycan array binding signal (z-score),Man(a1-6)Man,-0.453
same,glycan array binding signal (z-score),Man(b1-4)GlcNAc,-0.274
same,glycan array binding signal (z-score),MurNAc(b1-4)GlcNAc,-0.442

# From the supplement of paper PMC8728848
